Measurements as given in the RNAGym collection of RNA variant scans (doi:10.7554/elife.90254).
The source gives no read counts; variants with many changes may rest on few reads.

B1: LINE1-full (parent)
chain: UACGUAGGUGGUUUUCCCCUGAUAGUGCUAAGGGGGCCUGGAAGUUUGGACUGGGCAGAGCUCAACACAGCGUGGCAAAGUGGCUGUGGCUAGACUGCCUCUCUGGAUUCCUCGUCACUCAGCAGGGCAUCUCUGAGAGAAAUGCC

Variants of: B1
Test: self-cleavage, relative activity (ratio to wild type); higher = more cleavage; in vitro, sequencing; the parent is a self-cleaving ribozyme

| Variant | self-cleavage |
| --- | --- |
| C28G A31C C37U G88A | 0.05 |
| U14C U96C A117U | 0 |
| U39A U96A A141G | 0.03 |
| U15C A129U U130C | 1.84 |
| C3U A30G G33U | 1.27 |
| U23C G49A U52A | 1.17 |
| U15C U62C U73C A77U G114A C120U G127U A129G | 0.01 |
| U26C A31G A57U A69U | 0 |
| U13C C66U A78G G86C A141G | 0.07 |
| U5A U12C U39A A77G | 1.86 |
| U39C U46A G114U G135U | 0.74 |
| U39C A138G G144A | 1.63 |
| G36C U47A A136U A138G | 2.38 |
| A67U U87C A136G | 0.23 |
| A6G G54U G75A U108C | 0.81 |
| A57U U109A A141G | 0.38 |
| U9C U23C U104C U134A A138G | 0.44 |
| C28A A43G A67U C68U A69G A142G | 0.05 |
| U14C U23C U62C A78G | 0.13 |
| U85A U104G A136G | 0.1 |
| A6G U13C A50G C90U G126A U130C | 0.18 |
| U20A A77U U112C U119C | 0.71 |
| U1G U102C A138G | 0 |
| U13C U26C A30G U130A U132C | 1.84 |

| Variant | self-cleavage |
| --- | --- |
| U14C U73A U96C U102C A142G | 0.29 |
| U20A A138G A141U | 1.51 |
| U1A U87A U109C | 0.14 |
| U119C A124G U132A | 1.09 |
| U14A A31U A77C | 1.4 |
| U14C U52C A117U | 1.58 |
| A2U A30G U87A | 0.16 |
| G35A A57U U62C U119A A140G U143A | 0.03 |
| U12C G25A U45A C63U U102C A142U | 0.26 |
| U47C A69G A117U | 0.96 |
| C3A U45C A69G A77G | 0 |
| A77U U96A U104A | 0.05 |
| A6U U9A A117G A124G A136U | 0.88 |
| U12C U20C A92G U132C A142G | 0 |
| U46A U81A U87C | 0.2 |
| U13C A31G A50G U81A | 0.8 |
| A31G A42G G80A | 1.76 |
| U13C U46C U104C | 2.3 |
| U47A A64U A92U | 0.11 |
| U104A A140G A141G | 1.29 |
| A22U U39A A67G | 0.51 |
| U46C A77G U112C U143A | 2.9 |
| A59U U62C U85C U87A | 0 |
| U12C U100C A136G | 2.93 |

| Variant | self-cleavage |
| --- | --- |
| C61U U104C U115C C116U | 0.1 |
| U26C A31U C101U | 1.06 |
| U26A A59G U108A | 0.04 |
| U26C A30G G127A A129G U130C | 1.31 |
| U23A A78G U91G | 0 |
| U47C A77G C113A U134A | 1.94 |
| G25A A65G A121U U130A | 0.12 |
| A22G A42G A124C | 0.84 |
| U26A U45C U115C A136G | 2.53 |
| U81A A124U U143C | 2.2 |
| U23A U47C U130A | 1.79 |
| U13C A22G A64U | 0.61 |
| A67G G125A U143A | 0.28 |
| A43G U96C C113U | 0.17 |
| U15C G33A A77G | 1.84 |
| U108C U109C U115C | 2.04 |
| U52A G114A A142G U143A | 0.85 |
| U15C C17U U20A U26C A107G A121U | 0.92 |
| A22G U26A A107G A117U A138U | 1.77 |
| A43G G83C A136G | 1.65 |
| U20C A64G U96A U134C | 0.15 |
| U23C A59G A129G | 0.23 |
| A64G U85A U87A A94G A124U | 0 |
| A2G G35A A92G | 0.18 |

| Variant | self-cleavage |
| --- | --- |
| U12C U26A U47C A129G | 1.09 |
| U100C U109C U119C | 0 |
| G49A A57U U87A A136U | 0.05 |
| U15C U96C U102C G105A | 0.16 |
| U12C C28A A92G | 0.19 |
| U9C A59G U62C C63A A140G | 0.38 |
| U12C U14C G54U G58A | 0.12 |
| A22G U62A U100C U143C | 0.06 |
| U5C A77U U81A A138G | 1.64 |
| U23C U26A U62C U115C A124U | 0 |
| U119A U132A A136G | 1.57 |
| A92G U130C A138U | 0.19 |
| U46C A77U A140G U143A | 1.12 |
| A42G U52A U100C A136G | 2.58 |
| A43U A65G U108C U134A A140C | 0 |
| A22G A117G A121G | 0.48 |
| U1C C61G A107U | 0.05 |
| A67U U85A U109C A136G | 0.02 |
| U52A A65G U96C | 0.07 |
| U9A U45A U73C | 0.6 |
| U62C U109A A141G | 0.04 |
| A69G U87C U108C | 0 |
| U12C A67G U73C A78G | 2.3 |
| A30G U81C G88A G93A | 0.09 |

| Variant | self-cleavage |
| --- | --- |
| U12C C18U U85C | 0.2 |
| G54A U85C A92U C99U | 0.11 |
| U20C U39A A50G C120U | 0.9 |
| C51A U87G U112C U119C | 0.13 |
| U91C G106A U115A | 0.1 |
| A94G U104C U108C A140G | 1.15 |
| U15C G21A A69G A117G G122U | 0.78 |
| A30U G36C A57U A64G U73C U143C | 0 |
| U14C U87A U100C U112C | 0.22 |
| A2G U9G U102A C110A | 0.68 |
| A24G G48A A59G C71G | 0.06 |
| U12C A22U G34A U46A A67U G80U | 0.17 |
| G36C U134A A142G | 1.09 |
| U9C U26C U85C U102C U134A A140U | 0 |
| A78G U91C G114A | 0.26 |
| U20G G32A A124U | 0.79 |
| A94G U112C G135A | 0.17 |
| G35A U52G U81C | 1.46 |
| U14C A67G U115A U132C C133U | 0.43 |
| U14C U108C U134A | 1.56 |
| U12C U39C U112A | 1.24 |
| U29G A31G A77U U112A | 1.7 |
| U47C G55U U134C | 0.61 |
| U14C U112A A142G | 1.38 |

| Variant | self-cleavage |
| --- | --- |
| U12A U14C G25A U73A U134C | 1.37 |
| A30G C68U U102A A117G | 1.11 |
| G75A G82A U132A | 1.3 |
| U46A U85A U96A | 0.06 |
| A2G U96C U119C A140G | 0 |
| U5A U26C U87A U134C | 0.18 |
| A6G C38A U39C U47A | 0.42 |
| A22G A79G G127U A136U | 1.03 |
| G25C A69U U134A | 0.11 |
| G83U A94U U100A | 0.18 |
| U1C A64G A67U | 0.04 |
| G7U C17U U39C A65U G139A U143G G144A | 0.16 |
| A24C U62C A124G G126A A129U | 0.12 |
| G58A U115C U119A A129G | 0.03 |
| U9A A78U A121U A141G | 1.49 |
| A42U U62C A78G U85A U104A | 0.01 |
| U13C C51U U73A A77G | 2.08 |
| U5C A64G U87C | 0.99 |
| A57G A79G A124G | 0.51 |
| U96C U132C A140G A142G | 0 |
| A43G U45C U62C | 0.4 |
| U12A U14C A124G U134C | 1.19 |
| A6G A65U A69G U132G | 0.42 |
| U87C C98U A107G A136G | 0 |

| Variant | self-cleavage |
| --- | --- |
| U12C U73C U115C C123U | 2.17 |
| C3U U20C U130C | 1.05 |
| U15C A22G U73C | 1.75 |
| A6G U20C A22G A138G | 0 |
| A22U A107U U143A | 1.36 |
| A6G A69U A141G | 0.08 |
| U5C C61A G74A A124G U134C | 0.04 |
| C37U U115C A129G U143G | 1.22 |
| A24G A43G U130A | 1.65 |
| A64G C95U A107U U143C | 0.08 |
| U119C A140U A142G | 1.38 |
| U9C U12C U134A | 1.13 |
| U12G C68U A77U | 0.12 |
| A31U G60A C71G A79G U108C C120A | 0.03 |
| G40U U46C A64U C76U A142G | 0.67 |
| U14C G32A U47A A69G A77U A92C | 0.07 |
| U45C A107G U112C U130C | 0 |
| A22G U109A U130C A142G | 1.45 |
| U52A U73A U115C | 2.03 |
| U12C A57C C113U A124G | 0.12 |
| U45C U47A U143C | 1.36 |
| G7A U13C A77G C131U | 1.17 |
| U14C A30U A92U U132C | 0.62 |
